# About 530 (0.13%) of roughly 410,000 compounds were called active. The inconclusive results got no clear call from the source; some entries with a clear call stand among them for comparison. Calls follow the shape of the dose curve; as a rule, active = well fitted inhibition curve with a large enough effect; inconclusive = small, poorly fitted or top-dose-only effect, or another doubt; inactive = no such curve, though single readings can be large or run the other way. Where the call is inconclusive, the potency comes from a doubtful curve fit.
# Assay: qHTS of GLP-1 Receptor Inverse Agonists: Cytotox Screen
# Details: HEK293 cAMP-luciferase reporter cells, luminescence, 24 h; activity change, negative = inhibition: at 38.3 µM (top of the series) unless noted
# How it was run: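 Cells in DMEM/10% Nu serum/1% pen-strep, 1536-well format. Pre-incubated 12 h, dosed with 23 nL compound, incubated a further 24 h. Luciferase detection, 12 min at room temp, luminescence.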
# % is scaled to controls: 0 for no effect and ±100 for the full control effect; potency is read from the fitted curve at half-maximal effect.
SMILES,"activity change, negative = inhibition",Potency
COc1ccc(-c2noc(CCC(=O)N3CCN(c4cccc(Cl)c4)CC3)n2)cc1,inactive: 3.18%,
CCOc1ccc(-n2c(SCC(=O)NCc3ccco3)nnc2-c2c[nH]c3ccccc23)cc1,,"inconclusive: 28.2 µM [inhibitor, single point]"
CCOc1ccc(C(=O)C(CN2CCOCC2)c2ccccc2)cc1 (configuration not stated),,"inconclusive: 6.31 µM [inhibitor, partial curve, poor fit]"
COc1ccc(C2CC(=O)N(CC(=O)Nc3cccc(C)c3C)c3ccccc3S2)cc1OC (configuration not stated),inactive: -6.63%,
Cc1ccc(C(=O)N2CCC(C(N)=O)CC2)cc1NC(=O)c1nsc2ccccc12,inactive: -7.16%,
Oc1ccc(C[C@H]2CNCCN2CCCCC2CCCCC2)cc1,,"inconclusive: 8.91 µM [inhibitor, partial curve, poor fit]"
Cc1ccn2cc(-c3cccc(NC(=O)c4cccs4)c3)nc2c1,,"inconclusive: 28.2 µM [inhibitor, single point]"
COc1ccc(CN2CCN(C(=O)c3cc(-c4cccnc4)nc4ccc(Cl)cc34)CC2)c(OC)c1OC,,"inconclusive: 28.2 µM [inhibitor, single point]"
CCOc1ccc(N(C(C)C(=O)NCc2ccco2)S(C)(=O)=O)cc1 (configuration not stated),,"inconclusive: 7.08 µM [inhibitor, partial curve, poor fit]"
CCN1CCN(c2cc(C)c3cc(NC(=O)c4ccc(OC)c(OC)c4)ccc3n2)CC1,,"inconclusive: 10 µM [inhibitor, partial curve, poor fit]"
CCCCCN1C=CC=C/C1=C\C=C(C#N)C#N,,"inconclusive: 12.6 µM [inhibitor, single point]"
CCc1cccc(NC(=O)C2CCN(S(=O)(=O)c3cccc(-c4noc(C)n4)c3)CC2)c1,inactive: 10.6%,
COc1ccc(C)cc1Nc1nc(N)c2cc(OC)c(OC)cc2n1,,"inconclusive: 28.2 µM [inhibitor, single point]"
O=C(Nc1ccc(F)cc1)c1nc[nH]c1C(=O)Nc1ccccc1[N+](=O)[O-],,"inconclusive: 11.2 µM [inhibitor, single point]"
CCCCc1ccc(NC(=S)NCc2cccs2)cc1,,"inconclusive: 11.2 µM [inhibitor, partial curve, poor fit]"
CCCCOC(=O)Sc1nc2ccccc2o1,,"inconclusive: 31.6 µM [inhibitor, single point]"
COCCOc1ccc(C(F)(F)F)cc1NC(=O)c1ccccc1,inactive: -9.88%,
COc1ccc(-n2c(CCC(=O)O)ccc2-c2ccccc2)c(OC)c1,inactive: 0.395%,
OC(COc1cccc(OCC(O)CN2CCCC2)c1)CN1CCCC1 (configuration not stated),,"inconclusive: 7.94 µM [inhibitor, partial curve, poor fit]"
CC1=NN(c2nc(-c3ccccc3)cs2)C(=O)C1N=Nc1ccccc1 (configuration not stated),,"inconclusive: 11.2 µM [inhibitor, single point]"
Cc1ccc(N2CCN(CC(O)COc3cccc4ccccc34)CC2)cc1 (configuration not stated),,"inconclusive: 28.2 µM [inhibitor, single point]"
COCCCN1CCN(C2Cc3ccccc3Sc3ccc(Cl)cc32)CC1 (configuration not stated),,"inconclusive: 28.2 µM [inhibitor, single point]"
C=CCOC(=O)C1=C(C)NC(C)=C(C(=O)OCC=C)C1c1ccc(O)cc1,,"inconclusive: 12.6 µM [inhibitor, single point]"

SMILES,"activity change, negative = inhibition",Potency
Cc1nc2ccccc2nc1N/N=C/c1ccc(O)cc1,inactive: -12.2%,
CC(=O)c1sc(NC(=O)CCS(=O)(=O)c2ccc(F)cc2)nc1C,,"inconclusive: 28.2 µM [inhibitor, single point]"
O=C(Nc1nc2n(n1)C(c1ccc(F)cc1)C=C(c1ccccc1)N2)c1cccc([N+](=O)[O-])c1 (configuration not stated),inactive: 88.6%,
Cc1cccc(N(CC(=O)Nc2ccc(-c3nc4ccc(C)cc4s3)cc2)S(C)(=O)=O)c1,,"inconclusive: 20 µM [inhibitor, single point]"
Cc1cccc(C(=O)N/N=C/c2cc(Br)c(Br)o2)c1,,"inconclusive: 28.2 µM [inhibitor, single point]"
Cc1cc(NC2=CC(=O)C(=O)c3ccccc32)no1,,"inconclusive: 10 µM [inhibitor, single point]"
Clc1ccccc1-c1nnc(-c2ccccc2CNc2ccccc2)o1,inactive: -0.532%,
CCn1nnc2cc(C(=O)Nc3cccc(C)c3C)ccc21,inactive: -17.7%,
CC(C)(C)c1ccc(Cn2nnc3c(=O)[nH]c(C4CCCN(C(=O)Cc5cccs5)C4)nc32)cc1 (configuration not stated),,"inconclusive: 28.2 µM [inhibitor, single point]"
Clc1ccc(OCc2nnc(SCc3nnc(-c4ccccc4)o3)o2)c(Cl)c1,,"inconclusive: 28.2 µM [inhibitor, single point]"
O=C(COc1ccccc1[N+](=O)[O-])Nc1ccc(N2CCN(C(=O)c3cccs3)CC2)cc1,,"inconclusive: 28.2 µM [inhibitor, single point]"
CCCc1c(C(=O)N/N=C(\C)c2ccc(O)cc2)nnn1-c1nonc1N,inactive: 12.2%,
Cc1cc(NC(=O)c2ccc(C)s2)n(-c2nc3ccccc3[nH]2)n1,,"inconclusive: 3.55 µM [inhibitor, full curve, poor fit]"
CCCCNC(=O)[C@@](CC)(ONc1ccccc1C(F)(F)F)c1cccc2ccccc12,,"inconclusive: 15.8 µM [inhibitor, single point]"
CCOc1ccc(NC(=O)CN(C)C(=O)CCCOc2ccc(Br)cc2)cc1OCC,inactive: 3.27%,
Cn1c(C(C#N)C(=O)c2ccco2)nc2ccccc21 (configuration not stated),inactive: -2.27%,
Cc1cccc(-n2cnc3cc(C(=O)NC4CCCCCC4)ccc32)c1,,"inconclusive: 6.31 µM [inhibitor, partial curve, poor fit]"
Cc1cc(C)c(C#N)c(SCc2nnc(-c3ccccc3[N+](=O)[O-])o2)n1,,"inconclusive: 20 µM [inhibitor, single point]"
C/C(=N\NC(=O)COc1ccccc1[N+](=O)[O-])c1cccc(NC(=O)c2ccncc2)c1,,"inconclusive: 11.2 µM [inhibitor, partial curve, poor fit]"
COc1ccc(CNC(=O)c2cc(-c3ccncc3)nc3c(C)cc(C)cc23)cc1OC,,"inconclusive: 28.2 µM [inhibitor, single point]"
Cc1cn(C2OC(COC(=O)c3ccccc3)C(O)C2O)c(=O)[nH]c1=O (configuration not stated),inactive: 11.3%,
CC(=O)c1cc(-c2ccccc2)n(CC(=O)NCc2ccccc2C)c1C,inactive: 8.33%,
Clc1ncnc2scc(-c3ccc(Br)cc3)c12,inactive: -6.83%,

SMILES,"activity change, negative = inhibition",Potency
Cc1oc2c(cc(NS(=O)(=O)c3ccc(F)cc3)c3ccccc32)c1C(=O)OCc1ccccc1,,"inconclusive: 28.2 µM [inhibitor, single point]"
O=C(O)C(Cc1ccccc1)N1C(=O)/C(=C/c2cccs2)SC1=S (configuration not stated),,"inconclusive: 11.2 µM [inhibitor, partial curve, poor fit]"
COc1cc(NC(=S)NCCC(c2ccccc2)c2ccccc2)cc(OC)c1,,"inconclusive: 3.98 µM [inhibitor, full curve, poor fit]"
Cc1c(C(=O)Nc2ccc(-c3nnc4n3CCCCC4)cc2)oc2ccc(Br)cc12,,"inconclusive: 20 µM [inhibitor, single point]"
C/C(=N\NC(=O)c1ccc([N+](=O)[O-])cc1)c1cc2ccccc2oc1=O,,"inconclusive: 12.6 µM [inhibitor, single point]"
CC1CCCCN1S(=O)(=O)c1ccc(C(=O)N(CCCN(C)C)c2nc3ccc(Br)cc3s2)cc1 (configuration not stated),,"inconclusive: 28.2 µM [inhibitor, single point]"
Cc1cc(C)cc(OCCn2ccnc2)c1,inactive: -0.92%,
O=C1C(NS(=O)(=O)c2ccc(Cl)cc2)=C(N2CCCCC2)C(=O)c2ccccc21,,"inconclusive: 10 µM [inhibitor, partial curve, poor fit]"
Cc1ccc(-c2cc3nc(C)cc(NCc4ccco4)n3n2)cc1,inactive: 2.58%,
Cc1cc2nc(-c3ccc(SCc4ccccc4C#N)nc3)[nH]c2cc1C,,"inconclusive: 7.08 µM [inhibitor, partial curve, poor fit]"
COc1cccc(NC(=O)CCN2CCN(CCO)CC2)c1,inactive: 19.2%,
N/C(=N\OC(=O)c1cccc(Cn2cc(C(F)(F)F)ccc2=O)c1)c1ccc(Cl)cc1,,"inconclusive: 10 µM [inhibitor, single point]"
CC(C)NC(=S)N/N=C/c1ccc(C(C)(C)C)cc1,,"inconclusive: 6.31 µM [inhibitor, partial curve, poor fit]"
Cn1c(=O)c2[nH]c(NN=Cc3ccc(F)cc3)nc2n(C)c1=O,,"inconclusive: 10 µM [inhibitor, partial curve, poor fit]"
O=C(Nc1ccccc1)Nc1cc(OCC(F)(F)F)cc(OCC(F)(F)F)c1,,active: 5.62 µM
O=Nc1[nH]c(=O)c(/C=C(\O)c2ccccc2)nc1NO,inconclusive: -42.7% [inhibitor],
Nc1ccc2oc(Cc3ccc(Cl)cc3)nc2c1,inactive: -1.01%,
O=C1c2[nH]nc(-c3ccccc3O)c2C(c2ccc(Cl)cc2)N1CCc1ccccc1 (configuration not stated),,"inconclusive: 14.1 µM [inhibitor, single point]"
CCOc1ccccc1Nc1ncnc2c1c(-c1ccccc1)cn2-c1ccc(OC)cc1,inactive: -5.89%,
C=CC[C@@H](Cc1ccc(F)cc1)C(=O)OC[C@@H]1CCCN1C(=O)[C@@H](CC=C)CC(=O)N(CCO)Cc1ccccc1,,"inconclusive: 14.1 µM [inhibitor, single point]"
Cc1ccc(-c2csc(N(CCCN(C)C)C(=O)c3ccco3)n2)cc1,,"inconclusive: 3.55 µM [inhibitor, partial curve, poor fit]"
